Measured values published in PubChem BioAssay AID1240 (Sanford-Burnham Center for Chemical Genomics, 2008).
Among all 50,000 compounds or so, about 800 (1.6%) showed an effect of 50% or more. This is one part of the list.

Molecular target: Bcl-2-like protein 10 (Homo sapiens) (UniProt Q9HD36)
Assay: TR3 peptide-Bcl-B binding displacers, biochemical primary FP assay, phenotype converters (AID 1240);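 also: 0% = Bcl-B with tracer peptide and DMSO and 100% = tracer peptide lacking Bcl-B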
Details: GST-Bcl-B / FITC-TR3 peptide fluorescence polarization; stronger effect = higher value; compound at 3.75 mg/L

UniProt Q9HD36, sequence (Q9HD36 whole entry, looked up): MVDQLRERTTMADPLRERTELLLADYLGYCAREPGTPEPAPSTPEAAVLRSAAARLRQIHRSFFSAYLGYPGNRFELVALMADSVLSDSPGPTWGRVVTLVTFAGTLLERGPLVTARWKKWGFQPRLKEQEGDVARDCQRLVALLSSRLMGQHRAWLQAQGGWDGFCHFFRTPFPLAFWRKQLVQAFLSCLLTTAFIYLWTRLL

SMILES | displacement [%]
CCOc1ccc(/C=N/NC(=O)CN(c2ccc(C)cc2)S(=O)(=O)c2ccccc2)cc1 | -4.7
O=C(O)CCCCCN1C(=O)C(=O)/C(=C(/O)c2ccccc2)C1c1ccccc1F (stereo not given) | 0.1
O=C(Cc1ccc(Br)cc1)NC(c1ccccc1)c1ccccc1 | -3.8
Nn1cnc2scc(-c3ccc(Cl)cc3)c2c1=O | 5.9
CCOC(=O)c1c(NC(=O)c2ccncc2)sc2c1CCC(C)C2 (stereo not given) | 7.5
C=CCn1c(-c2cc(OC)c(OC)c(OC)c2)n[nH]c1=S | -7.4
COc1ccc(OCC(=O)Nc2ccccc2CO)cc1 | -5.7
CCNC(=O)c1c(N)sc2c1CCCCC2 | 36.8
CNC(=O)CN(c1ccc(C)cc1)S(=O)(=O)c1ccc(OC)c(OC)c1 | -12.8
CCNC(=O)CN(c1ccccc1OCC)S(=O)(=O)c1ccccc1 | 10.1
Cc1ccc(C(=O)/C=C/c2ccccc2OCc2ccccc2)cc1 | 10.5
COc1ccc(S(=O)(=O)N2CCN(Cc3ccncc3)CC2)cc1 | -7.9
COc1ccc(N2C(=O)NC(=O)/C(=C/c3ccc(-c4ccccc4[N+](=O)[O-])o3)C2=O)cc1 | -46.3
Cc1ccc(OCC(=O)NCc2ccc(F)cc2)c(Br)c1 | -3.1
Cc1ccc(-c2ccc(/C=C3\C(=O)NN(c4ccccc4)C3=O)o2)c([N+](=O)[O-])c1 | 14.1
COc1ccccc1OCCOc1cccc(/C=C2/SC(=S)N(C)C2=O)c1 | 95.5
COc1ccc(N2C(=O)NC(=O)/C(=C\c3ccc(Oc4ccc([N+](=O)[O-])cn4)cc3)C2=O)cc1 | 4.2
O=C(NC(=S)Nc1ccc(N2CCCCC2)c(Cl)c1)c1ccco1 | -7.1
Cc1ccccc1C(=O)Nc1ccc(NC(=O)c2cccc(Br)c2)cc1 | 1.6
O=C(/C=C/c1cccc([N+](=O)[O-])c1)N1CCC(Cc2ccccc2)CC1 | 5
O=C(/C=C/c1ccccc1)NC(=S)Nc1cccc(NC(=O)c2ccco2)c1 | 8.2
O=C1c2ccccc2C(=O)c2c1c(O)c1ccccc1c2Nc1ccccc1 | -0.5
C#CCOC(=O)C(C=C=C)(C(F)(F)F)C(F)(F)F | 7
COc1ccc(C2CC(=O)C3=C(C2)Nc2ccccc2NC3c2ccccc2Br)cc1OC (stereo not given) | -27.1
CS(=O)(=O)N(Cc1ccccc1)c1ccc(C(=O)Nc2ccc(Oc3ccccc3)cc2)cc1 | 3.7
COc1ccc(OC)c(S(=O)(=O)n2c(C)nc3ccccc32)c1 | 14.9
CCOc1ccc(NC(=O)C2=C(C)NC(=O)NC2c2ccc(O)c(OC)c2)cc1 (stereo not given) | 17.9
CN(C)CC(=O)N1c2ccccc2CCc2ccc(NC(N)=O)cc21 | 8.4

SMILES | displacement [%]
Cc1ccccc1N1C(=O)NC(=O)/C(=C\c2cc(C)n(-c3cccnc3)c2C)C1=O | 2.3
CCOC(=O)C(CC(C)C)NC(=O)C(Cc1ccccc1)N1C(=O)c2ccccc2C1=O (stereo not given) | 13.8
CCCOC(=O)c1cccc(NC(=O)COc2ccc(C)cc2Br)c1 | 12.3
Cc1cccc(N2C(=O)C3C(C2=O)N2C(c4ccco4)C4C(=O)N(c5cccc(C)c5)C(=O)C4N2C3c2ccco2)c1 (stereo not given) | -10.9
COC(=O)c1cc(-c2ccc(/C=C3/N=C(c4ccccc4)OC3=O)o2)ccc1Cl | 23.7
Cc1[nH]n(-c2ccccc2)c(=O)c1C=Nc1ccc(Cl)cc1 | 1.9
C=C(C)COc1ccccc1/C=C1\N=C(c2ccc(F)cc2)OC1=O | 1.9
CCOC(=O)CCC(=O)Nc1cc(-c2ccc(F)cc2)[nH]n1 | 6.2
COc1ccccc1/C=C1\SC(N2CCCCCC2)=NC1=O | 24.8
O=C1c2cccnc2C(=O)N1c1cccc(-c2nc3ccccc3o2)c1 | 23.6
CCOc1cc(OCC)cc(C(=O)NCc2ccccc2)c1 | -9.5
CCCN(C=O)/N=C/c1ccc([N+](=O)[O-])cc1O | -17
Cn1c(=O)c2c(nc(N3CCCCC3)n2C)n(C)c1=O | 3.8
C=CCNC(=O)CN(c1ccc(C(C)C)cc1)S(=O)(=O)c1ccccc1 | 3.4
CCCOc1ccc(Cc2c(O)[nH]c(=S)[nH]c2=O)cc1C | -11.6
O=C1C(=O)N(CCCn2ccnc2)C(c2ccccc2Cl)/C1=C(\O)c1ccc(Cl)cc1 (stereo not given) | 2.5
C#CCOc1ccc(/C=C2\C(=O)NC(=O)N(c3ccc(C)cc3)C2=O)cc1Br | 0.6
O=C1NC(=O)/C(=C\c2cccc([N+](=O)[O-])c2)S1 | 11.6
CC(=O)Nc1ccc(Br)cc1C(NCC(=O)NN)c1ccccc1 (stereo not given) | -6
Oc1c(Br)cc(Br)cc1/C=N/Nc1nc(N2CCOCC2)nc(N2CCOCC2)n1 | 10.4
COc1ccc(/C=C/C(=O)N2CCOCC2)cc1Br | 13.7
COc1ccc(CN2CCN(C3CCCC3)CC2)cc1OCc1ccccc1 | -9.7
CSc1ccc(C(C2=C(O)CC(C)(C)CC2=O)C2C(=O)CC(C)(C)CC2=O)cc1 (stereo not given) | 0.6
COc1cc(/C=C2\SC(=S)N(c3ccc(C)cc3C)C2=O)cc(Br)c1O | 0.9
CSc1ccc(C2CC(=O)Nc3c2cc(Br)c2ccccc32)cc1 (stereo not given) | -6.4
C/C(NC(=O)c1ccccc1)=C1/C(=O)CC2C1C2(C)C (stereo not given) | 8.5
CCn1c2ccccc2c2cc(NC(=O)c3ccccc3Cl)ccc21 | 5
